Experimental data reported in ChEMBL document CHEMBL1157539, “Thousands of chemical starting points for antimalarial lead identification” (Nature, 2010).
Whole data set: some 13,000 compounds, median “IFI” near 4, cut for the highest 2% near 17. The list shows a part of the results.

test: GSK_TCMDC: Inhibition Frequency Index (IFI). The number of non-kinase HTS assays where a compound showed > 50 % inhibition, expressed as a percentage of the number of such assays in which the compound was tested (-0 is zero); assay type: functional

Q: With CCCCCCNC(=O)C1Cc2c([nH]c3cc(Cl)ccc23)C2(CCN(Cc3ccccc3)CC2)N1 (stereo not drawn) as the compound, how does the IFI read?
A: 7.19%

Q: With N#Cc1cccc(Nc2nccc(Nc3ccc(Oc4ccccc4)cc3)n2)c1 as the compound, how does the IFI read?
A: 3.13%

Q: For O=C(c1ccc(Cl)c(Cl)c1)N1CCc2c([nH]c3ccccc23)C1CN1CCCC1 (stereo not drawn), which IFI is on record?
A: 12.7%

Q: For Cc1cc(N(CCN2CCCCC2)CCN2CCCCC2)nc(Nc2ccc(Cl)cc2)n1, which IFI is on record?
A: 5.8%

Q: With COc1ccccc1CN1CCC(CNC(=O)c2cc(-c3ccc(N(C)C)cc3)cs2)C1 (stereo not drawn) as the compound, how does the IFI read?
A: 13.7%

Q: For N#Cc1ccc(-c2ccc(C(=O)NCC3CCN(CCN4CCC(c5ccc6c(c5OCC(N)=O)CCCC6)CC4)CC3)cc2)cc1, which IFI is on record?
A: 8.41%

Q: With COc1ccc(-c2ccc(NC(=O)c3cccc(F)c3)cc2)cc1CN1CCCN(C)CC1 as the compound, how does the IFI read?
A: 4.95%

Q: Which IFI does the source give for O=C(Cc1ccc(NC(=O)c2ccc(O)c(-c3ccc(Cl)c(Cl)c3)c2)cc1)NCc1cccc(C(F)(F)F)c1 here?
A: 3.68%

Q: With COC(=O)c1ccc(-c2ccc(C(=O)NCC3CCN(c4nc(N)c5cc(OC)c(OC)cc5n4)CC3)cc2)cc1 as the compound, how does the IFI read?
A: 6.25%

Q: For Cc1cccc(-n2nc(C)c3c2NC(=O)CC3C(=O)c2ccc(Cl)s2)c1 (stereo not drawn), which IFI is on record?
A: 2.33%

Q: Which IFI does the source give for Clc1ccc2c(NCc3ccccc3)ccnc2c1 here?
A: 8.33%

Q: For Cc1cc(OCCN2CCCCC2)ccc1NC(=O)c1cccc2c(=O)n(Cc3ccc(Cl)cc3)cnc12, which IFI is on record?
A: 12.2%

Q: Which IFI does the source give for CCOc1ccc(-c2nonc2NC(=O)c2ccccc2Cl)cc1OCC here?
A: 1.45%

Q: With CN(C)C(=O)O[C@@H]1CN[C@H](C#Cc2cc3ncnc(Nc4ccc5c(cnn5Cc5cccc(F)c5)c4)c3s2)C1 as the compound, how does the IFI read?
A: 5.76%

Q: With Fc1ccccc1CNc1ncc(-c2ccsc2)c(-c2nccs2)n1 as the compound, how does the IFI read?
A: 5.81%

Q: With C[C@@]12C[C@@H](Nc3nc(NCCc4ccc(O)cc4)nc(N4CCNCC4)n3)C[C@@H](C1)c1cccc(Cl)c1O2 as the compound, how does the IFI read?
A: 20.9%

Q: For Cn1cncc1-c1cc2c(Nc3ccc(OCc4ccccc4)cc3)ncnc2cn1, which IFI is on record?
A: 3.7%

Q: With O=C(/C=C/c1ccc(Cl)c(Cl)c1)N1CCC(CCN2CCC(c3c[nH]c4ccccc34)CC2)CC1 as the compound, how does the IFI read?
A: 4.61%

Q: For COCCNCc1nc(-c2ccc3c(Nc4ccc(Cl)cc4F)ccnc3c2)cs1, which IFI is on record?
A: 5.26%

Q: With CN1CCN(c2ccnc3ccc(NC(=O)Cc4cccc(Cl)c4Cl)cc23)CC1 as the compound, how does the IFI read?
A: 2.24%

Q: For CN(C)C1CCN(CC#Cc2cc3ncnc(Nc4ccc(OCc5cccc(F)c5)c(Cl)c4)c3s2)CC1, which IFI is on record?
A: 9.52%

Q: With CCNc1cc(C)nc(Nc2ccc(NC(=O)c3ccco3)cc2)n1 as the compound, how does the IFI read?
A: 9.8%

Q: For OC1(c2ccccc2)CCN(Cc2cccc(-c3c[nH]c4nc(NC5CCCC5)ncc34)c2)C1 (stereo not drawn), which IFI is on record?
A: 8.33%

Q: For COc1cccc2c(N/N=C/c3ccccc3[N+](=O)[O-])ccnc12, which IFI is on record?
A: 3.62%

Q: With COc1c(CN2CCCC2)cccc1-c1cc2c(-c3ccc(C(=O)O)c(C(C)C)c3)ccnc2[nH]1 as the compound, how does the IFI read?
A: -0%

Q: With Cc1noc(=O)c2ccc(NC(=O)C(O)(CSc3ccccc3)CC(C)C)cc12 (stereo not drawn) as the compound, how does the IFI read?
A: 1.85%

Q: Which IFI does the source give for CC(C)=CCc1c(-c2ccc(O)cc2O)oc2c3c(cc(O)c2c1=O)OC(C)(C)C=C3 here?
A: 9.09%

Q: Which IFI does the source give for Fc1ccc2[nH]c(-c3cccc(-c4cccc(CNCCc5ccncc5)c4)c3)nc2c1 here?
A: 5.05%

Q: For COCCn1c(-c2nc(-c3ccc(F)cc3)cnc2N)nc2ccccc21, which IFI is on record?
A: 1.42%

Q: Which IFI does the source give for COc1ccc(CCN(C)CCOc2ccc(NC(=O)c3cc(SC)cc4c(=O)c5ccccc5[nH]c34)cc2)cc1OC here?
A: 6.14%

Q: With Cc1sc2ncnc(Sc3nc4ccccc4[nH]3)c2c1C as the compound, how does the IFI read?
A: 0.75%

Q: Which IFI does the source give for O=C(Nc1ccc(C(F)(F)F)cc1)NC1CCN(c2ccnc3ccccc23)CC1 here?
A: 16.2%

Q: With Cc1cccc2nc(-c3ccc(-c4ccc(NC(=O)Nc5ccc(Cl)c(Cl)c5)cc4)cc3)[nH]c12 as the compound, how does the IFI read?
A: 3.03%

Q: With NC1CCCN(Cc2cccc(-c3ccc(-c4nc5cc(C(F)(F)F)ccc5[nH]4)cc3)c2)C1 (stereo not drawn) as the compound, how does the IFI read?
A: 5.63%

Q: With CC(C)C[C@H](NC(=O)c1cc2ccccc2s1)C(=O)N[C@H]1CCN(Cc2ccc(OCCN3CCNCC3)c3ccccc23)C1 as the compound, how does the IFI read?
A: 3.45%

Q: Which IFI does the source give for CN1CCN(c2ccc(Nc3ncc(Cl)c(Nc4cccnc4C(N)=O)n3)cc2)CC1 here?
A: 16.2%

Q: For COc1cc2c(Nc3ccc(NC(=O)c4ccccc4)cc3)ncnc2cc1OCCCN1CCOCC1, which IFI is on record?
A: 5.36%

Q: Which IFI does the source give for Cn1cncc1C(=O)Nc1ccc(-c2cccc(-c3nc4cc(C(F)(F)F)ccc4[nH]3)c2)cc1 here?
A: 2.68%

Q: With Nc1nc(N)c2c(ccc3c2ccn3C2C=CCCC2)n1 (stereo not drawn) as the compound, how does the IFI read?
A: 2.14%

Q: With Cn1nccc1C(=O)NCCNCc1ccc(-c2cccc(-c3nc4cc(C(F)(F)F)ccc4[nH]3)c2)cc1 as the compound, how does the IFI read?
A: 4.81%

Q: With COc1ccc2c(=O)ccn(CCN3CCC(NCc4ccc5c(n4)NC(=O)CS5)CC3)c2c1 as the compound, how does the IFI read?
A: 2.17%

Q: Which IFI does the source give for O=C(Nc1ccc(C(F)(F)F)cc1)c1cc(Br)cnc1NCCCn1ccnc1 here?
A: 1.67%

Q: Which IFI does the source give for CN(C)CC1c2[nH]c3ccccc3c2CCN1C(=O)Nc1ccc(Cl)c(Cl)c1 (stereo not drawn) here?
A: 6.38%

Q: Which IFI does the source give for COc1ccc(NC(C)C(=O)Nc2ccc(Br)cc2)cc1S(=O)(=O)N1CCCCC1 (stereo not drawn) here?
A: 8.7%

Q: Which IFI does the source give for Fc1ccc2[nH]c(-c3ccc(-c4ccc(CNCCc5cccnc5)cc4)s3)nc2c1 here?
A: 7.95%

Q: Which IFI does the source give for Cc1nnsc1C(=O)Nc1ccc(-c2cccc(-c3nc4cc(C(F)(F)F)ccc4[nH]3)c2)cc1 here?
A: 7.96%

Q: With Cc1cccc2c3c([nH]c12)C1(CCN(CCc2ccccc2)CC1)NC(C(=O)NCc1ccccc1)C3 (stereo not drawn) as the compound, how does the IFI read?
A: 4.55%

Q: Which IFI does the source give for O=C(NCCCN1CCN(c2cccc(Cl)c2)CC1)c1ccc(-c2nc3cc(Cl)c(Cl)cc3[nH]2)cc1 here?
A: 0.74%

Q: Which IFI does the source give for N#Cc1ccc(N2CCN(Cc3ccc(-c4ccc(-c5nc6cc(F)ccc6[nH]5)s4)cc3)CC2)nc1 here?
A: 2.97%

Q: With COc1cc(-c2nc(-c3ccncc3)c(-c3ccc4c(c3)CCC4=NO)[nH]2)ccc1OCCN1CCCCC1 as the compound, how does the IFI read?
A: 3.68%

Q: For c1ccc2cc3c(Nc4ccc(N5CCCCC5)cc4)ccnc3cc2c1, which IFI is on record?
A: 0.81%

Q: Which IFI does the source give for CCCCN1CC[C@@H](CCC(O)c2cc(OCCC)nc3ccc(OC)cc23)[C@@H](CC)C1 (stereo partly drawn) here?
A: 5%

Q: With COc1cc(F)c2ncc(Cl)c(CCN3CCC(NCc4ccc5c(c4)OCCO5)CC3)c2c1 as the compound, how does the IFI read?
A: 3.79%

Q: For CN1CCN(CCCN(Cc2ccc(-c3cccc(CNCc4ccc5c(c4)OCO5)c3)cc2)C(=O)CCC2CCCC2)CC1, which IFI is on record?
A: 4.32%

Q: Which IFI does the source give for CCN(CC)CCNC(=O)c1ccc(NC(=O)c2cn(-c3ccccc3)nc2-c2cccs2)cc1 here?
A: 5.76%

Q: Which IFI does the source give for CCCCNCc1ccc(-c2nc(CN(Cc3ccc(Cl)c(Cl)c3)S(=O)(=O)c3ccc(NC(C)=O)cc3)cs2)cc1 here?
A: 5.51%

Q: With O=C(CCOc1ccccc1)NCC1CCCO1 (stereo not drawn) as the compound, how does the IFI read?
A: -0%

Q: For O=C(NC(c1ccccc1)c1ccccc1)C(c1cc2ccccc2o1)N1CCN(C(c2ccccc2)c2ccccc2)CC1 (stereo not drawn), which IFI is on record?
A: 1.46%

Q: With Oc1ccc2[nH]c(-c3cccc(F)c3)nc2c1CN1CCCC1 as the compound, how does the IFI read?
A: 0.96%

Q: With CNc1nc(N/N=C/c2cc([N+](=O)[O-])c(Cl)cc2Cl)nc(Nc2cccc(C(F)(F)F)c2)n1 as the compound, how does the IFI read?
A: 2.29%

Q: For O=C(Cc1cc(F)cc(F)c1)NC1CCN(c2ccnc3cc(Cl)ccc23)C1 (stereo not drawn), which IFI is on record?
A: 3.08%

Q: For O=C(Nc1ccc(SC(F)(F)F)cc1)Nc1ccnc2ccccc12, which IFI is on record?
A: 9.29%

Q: Which IFI does the source give for COc1cc2s/c(=N\C(=O)c3cccc([N+](=O)[O-])c3)n(C)c2cc1OC here?
A: 1.72%

Q: With NC1=NC(c2ccccc2)(c2ccccc2)C(=O)N1CCCCc1ccccn1 as the compound, how does the IFI read?
A: 3.51%

Q: For CC(C)(C(=O)Nc1ccc(C2CCC(NCC3CC3)CC2)c(Cl)c1)c1cccc(OC(F)F)c1 (stereo not drawn), which IFI is on record?
A: 23.4%

Q: Which IFI does the source give for NC1CCN(c2nc(NCCCc3ccc(O)cc3)nc(NCc3ccccc3-c3ccc(C(F)(F)F)cc3)n2)CC1 here?
A: 16.9%

Q: With Cc1cc(N(C)C)nc(Nc2ccc(NC(=O)Nc3ccccc3)cc2)n1 as the compound, how does the IFI read?
A: 6%

Q: With CN(C)CCNC(=O)c1ccc2c(c1)n(C1CCN(S(=O)(=O)c3ccc(-c4ccccc4)cc3)CC1)c(=O)n2CC1CCCCC1 as the compound, how does the IFI read?
A: 7.69%

Q: Which IFI does the source give for FC(F)(F)c1ccc2[nH]ccc(=NN=CC=Cc3ccccc3)c2c1 here?
A: 1.45%

Q: For O=C(/C=C/c1ccc(Cl)cc1)NCCCCCN1CCCN(C(=O)Nc2ccc(F)c(Cl)c2)CC1, which IFI is on record?
A: 10.9%

Q: For CN(c1ccccc1)c1ccnc(NC(=N)Nc2ccc(Cl)cc2)n1, which IFI is on record?
A: 18.4%

Q: For N#Cc1ccc(NC2(C(=O)N3CCN(c4cccc(Cl)c4)CC3)CC2)c2ccccc12, which IFI is on record?
A: -0%

Q: With COc1ccc(CCC(C)N2CC(N)C(c3cn(C)c4cnccc34)C2)cc1 (stereo not drawn) as the compound, how does the IFI read?
A: 0%

Q: Which IFI does the source give for Cc1cc2ncn(-c3ccnc(N4CCN(CCCN5CCCC5)CC4)n3)c2cc1C here?
A: 5.26%

Q: With O=C(NCC1CCN(Cc2cccc(F)c2)C1)c1cc(-c2cccc(C(F)(F)F)c2)cs1 (stereo not drawn) as the compound, how does the IFI read?
A: 9.43%

Q: Which IFI does the source give for c1ccc2[nH]c(-c3ccc(-c4ccc(CN5CCCCC5)cc4)s3)nc2c1 here?
A: 4.13%

Q: For COc1ccc(-c2cc(C(=O)Nc3ccc4[nH]c(-c5ccccc5)nc4c3)[nH]n2)cc1, which IFI is on record?
A: 3.39%

Q: With COc1ccc(-c2nc(NC(=O)CS(=O)(=O)c3ccc(F)cc3)sc2C)cc1 as the compound, how does the IFI read?
A: 5.31%

Q: For Cc1ccc(NC(=O)NCCCCCN2CCC(c3c[nH]c4ccccc34)CC2)cc1I, which IFI is on record?
A: 5.34%

Q: For Cc1ccc(NS(=O)(=O)c2ccc(-c3ccccc3)cc2)c(Cn2cnc(N3CCCNCC3)cc2=O)c1, which IFI is on record?
A: 5.04%

Q: Which IFI does the source give for c1ccc2c(c1)ncc1c3ccccc3[nH]c21 here?
A: 1.5%

Q: With O=S(=O)(NCCN1CCCC1)c1ccc(-c2cccc(CNCc3ccc(F)cc3)c2)cc1 as the compound, how does the IFI read?
A: 10.4%

Q: With CCc1n[nH]c(C(=O)NC2CCN(CC3(c4ccc(OC)cc4)CCCCC3)CC2)c1C as the compound, how does the IFI read?
A: 6%

Q: Which IFI does the source give for Cc1cc(-c2cccc(CNC3CCN(C)CC3)c2)ccc1S(=O)(=O)NCc1ccccc1 here?
A: 10.4%

Q: For Cc1ccc(S(=O)(=O)N(C)c2ccccc2C(=O)Nc2ccccc2Oc2ccccc2)cc1, which IFI is on record?
A: 1.64%

Q: For COc1ccc(NC(=O)[C@H](CC(C)C)Nc2cc(C)nc(NCc3cccc(C)c3)n2)cc1, which IFI is on record?
A: 9.52%

Q: For O=C(Nc1ccc(Cl)cc1)Nc1cccc(-c2ccc(-c3nc4cc(F)ccc4[nH]3)cc2)c1, which IFI is on record?
A: 3.96%

Q: Which IFI does the source give for CCOC(=O)C(=O)N1c2ccc(OCC)cc2-c2c(ssc2=S)C1(C)C here?
A: 4.44%
